Reference: the RNAGym collection of RNA variant scans (doi:10.1101/gad.245936.114)
Variants at the background level are over-represented here.

B1: tRNA (parent)
chain: CUCUCGGUAGCCAAGUUGGUUUAAGGCGCAAGACUUUAAUUUAUCACUACGAAAUCUUGAGAUCGGGCGUUCGACUCGCCCCCGGGAGAUUUUUUCCUCGAGCAA

Variants of: B1
Assay: nonsense suppression (GFP-seq) (ratio to wild type); higher = more function; SUP4oc tRNA, yeast GFP reporter sort-seq
Method in brief: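 Raffinose/galactose medium with 80 mg/L adenine was used to grow yeast carrying genome-integrated tRNA variants (~3% random-mutation library), RFP, and a galactose-driven GFP ochre reporter. Cells went into GFP/RFP bins, which were Illumina-sequenced, and variants with ≥100 reads and ≥30 cells were scored. Nonsense suppression (GFPSEQ) is the per-bin median GFP/RFP weighted by estimated cell share and expressed relative to the unmutated parent tRNA.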

Variant	nonsense suppression
G15A G18U C81U C82A	≤ 0.026
G15U C75U	≤ 0.026
G15A A31U U35C U76G C83G	≤ 0.026
G15U A74G G86A	≤ 0.026
U16A C27A U58G	≤ 0.026
U16G A62U C72G	≤ 0.026
U16C C82G	≤ 0.026
U16C C82A	≤ 0.026
G15U C27A	≤ 0.026
G15U C27G	≤ 0.026
A14U U20A G32A A33U G61A	≤ 0.026
U16A A31C	≤ 0.026
G15C U20A G65C	≤ 0.026
G15C U55C	≤ 0.026
U16A G59A	0.32
U16A G59U	≤ 0.026
G15C U21G	≤ 0.026
G15U U22G A24U	≤ 0.026
U16G C68A	≤ 0.026
U16A U17G A31C U58C G78C	≤ 0.026
G15U U71C C82A	≤ 0.026
G15C U63C	≤ 0.026
G15C U20C A33U	≤ 0.026
U16G G28C C72A C83U	≤ 0.026

Variant	nonsense suppression
G15C C29U A54U U58G	≤ 0.026
G15U C27G C77A G85A	≤ 0.026
U16G C77G	≤ 0.026
U16G C77U	≤ 0.026
U16G C77A	≤ 0.026
G15C U17G G19C G25U	≤ 0.026
G15U U20A G65U C72U G86A	≤ 0.026
G15U A24G G86C	≤ 0.026
U16C C68A G88U	≤ 0.026
U16A C68U G84U	≤ 0.026
U16C U76A A89U	≤ 0.026
G15A G59C U76A G85C	≤ 0.026
G15U U20G C27G A33G A54U	≤ 0.026
U16C G66C C68A G78A	≤ 0.026
G15C A30U G69C A74G	≤ 0.026
U16C A24G G66U U76C	≤ 0.026
U16C G61A U63A	0.186
U16G C27U G66C	≤ 0.026
A14U U20A	≤ 0.026
G15A A60C	≤ 0.026
G15U U16A C68U	≤ 0.026
G15U C80A	≤ 0.026
U16A G19U U21G	≤ 0.026
G15A G25U U55C	≤ 0.026

Variant	nonsense suppression
U16A G86C	≤ 0.026
G15U U20C G61A	≤ 0.026
U16C G65C	≤ 0.026
G15U C64U G69C	≤ 0.026
A14U U16C G73C A89U	≤ 0.026
U16A U70A	≤ 0.026
G15C A74U	≤ 0.026
U16A A87C	≤ 0.026
G15A C81U	0.0386
G15C G65A	≤ 0.026
G15C C64A C75G	≤ 0.026
U16C G28U U63A	≤ 0.026
G15C G18U A30C G69C	≤ 0.026
G15U G25A G28U G84U	≤ 0.026
G15A A89U	≤ 0.026
U16A A30C	≤ 0.026
G15C C80A A89U	≤ 0.026
U16A U58A	≤ 0.026
G15A G59C A87C	≤ 0.026
G15U G61A G67C C83A	≤ 0.026
U16C G32U	≤ 0.026
G15C A23G	≤ 0.026
U16A G25U G61A	≤ 0.026
G15A U22A A24G C34U	≤ 0.026

Variant	nonsense suppression
G15C C64U G65U G86U	≤ 0.026
U16A A30G U63A	≤ 0.026
G15C G67C G88U	≤ 0.026
U16C G78U	0.454
U16A A24U G28C C34A G67A	≤ 0.026
U16G C27A G28U A30U	≤ 0.026
G15A G25U	≤ 0.026
U16G C27G U76A C82G	≤ 0.026
G15U C27U A33C	≤ 0.026
G15C A30G C34G U35A G73C	≤ 0.026
U16A G59U G84C	≤ 0.026
U16C A33U C72G	≤ 0.026
U16C U21G G25A A31G C34A	≤ 0.026
G15U C29U G67C	≤ 0.026
A14U U20C G26A A31G	≤ 0.026
G15U G65C G66C	≤ 0.026
G15A A30C G59U C79A C83U	≤ 0.026
U16A U20G C27G	≤ 0.026
U16A C72A U76C C79G	≤ 0.026
G15U G86U	≤ 0.026
G15U G86C	≤ 0.026
U16G C82G	≤ 0.026
G15U G67C	≤ 0.026
G15U G67A	≤ 0.026

Variant	nonsense suppression
U16A C34G	≤ 0.026
G15A G28A C75A	0.24
U16A G18U A33G G66C	≤ 0.026
U16G C79U	0.852
G15A A33U A54U A89U	≤ 0.026
G15C A30G	≤ 0.026
U16C G26C A33U	≤ 0.026
U16C U17C A30G G69A	≤ 0.026
U16G G19U U63C	≤ 0.026
U16C U20G G28A G86U	≤ 0.026
U16C G19A U20A C34G A54G A60C C68G G69C	≤ 0.026
G15C G61A	≤ 0.026
G15A G25U C56G	≤ 0.026
A14U U57G U63C	≤ 0.026
G15C U21G U70A	≤ 0.026
G15U C64U	≤ 0.026
G15U C64G	≤ 0.026
G15C C83A G84A	≤ 0.026
U16G A30U C34G U35G	≤ 0.026
G15U C34U U57C	≤ 0.026
U16C U55C A62U	≤ 0.026
U16G C56A U58G A60C	≤ 0.026
G15C U22G A60U C81G	≤ 0.026
U16C U57G C72G C80A	≤ 0.026

Variant	nonsense suppression
A14U U76G	≤ 0.026
A14U U76A	≤ 0.026
G15A U17C A33C U58A U70C G78C	≤ 0.026
G15U U16C A24G G32C C56G G88U	≤ 0.026
G15A U55A	≤ 0.026
G15A U55G	≤ 0.026
G15A U16C A23U G61A	≤ 0.026
U16C A54U G65A G88C	≤ 0.026
G15A U58G C64G C72A C79G	≤ 0.026
U16C C68U	1.03
U16G A89C	≤ 0.026
U16G A54U G69C U76C C81U	≤ 0.026
U16G A33C	≤ 0.026
U16C U57C C68A	≤ 0.026
U16C G26A A31G	≤ 0.026
G15C G18U U76G A87G	≤ 0.026
G15A U16G U55A	≤ 0.026
U16C C27U	0.137
G15C A24C	≤ 0.026
G15C A24G	≤ 0.026
U16A A62G U76G	≤ 0.026
U16A A31G G86U	≤ 0.026
U16C U17C G65U G78A	≤ 0.026
U16C C81U	1.16

Variant	nonsense suppression
U16C U20C C29A	≤ 0.026
G15C U21C G65A A89G	≤ 0.026
U16G C64A	≤ 0.026
U16A A31U C75U	≤ 0.026
A14U U70C	≤ 0.026
U16G G28U U35G G59A G85A	≤ 0.026
G15U C56U	≤ 0.026
G15U U35C G88C	≤ 0.026
U16A C77U C82U	≤ 0.026
U16G A23U C80G G86C	≤ 0.026
G15C C29U G86A	≤ 0.026
G15C G25U A60C A87C	≤ 0.026
U16G A54U U63G	0.278
U16G A54U U71A C72U G73C C80A	≤ 0.026
G15U G25C G73C	≤ 0.026
U16C G25C G65A	≤ 0.026
G15U G61U A74G	≤ 0.026
G15A G19C U55C	≤ 0.026
G15C U22C G28C	≤ 0.026
G15A C34A U71A C75G	≤ 0.026
U16A G26C	≤ 0.026
U16C G32A G59A C82G	≤ 0.026
G15U G61C G65A	≤ 0.026
